The whole screen tested about 120,000 compounds, of which about 5,300 (4.4%) were called active. This list was built around the results that the source calls inconclusive (neither active nor inactive); the mix of calls is not that of the screen. The call rests on the fitted dose curve; in most records, active means well fitted inhibition curve with a large enough effect; inconclusive means small, poorly fitted or top-dose-only effect; inactive means no such curve, though single readings can be large or run the other way. Potencies beside an inconclusive call are fits to weak or partial responses and may not hold up.
Test: qHTS Primary assay for Inhibitors of Plasmodium falciparum Dd2 growth in vitro; further: nearly all actives have a fitted effect of over 65% in size;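 on activity, negative = inhibition: plate controls were DMSO vehicle for no effect and reference drug for full effect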
Conditions: P. falciparum Dd2 growth, SYBR Green, 72 h; activity, negative = inhibition: at 28.9 µM (top of the series) unless noted; series mostly up to 28.9 µM
Method in brief: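 Infected erythrocytes (Dd2, 0.3% parasitemia, 2.5% hematocrit final) are added to compound in RPMI-1640/Albumax II medium, grown 72 h at 37C in low oxygen, then lysed with saponin/Triton-X containing SYBR Green and read by fluorescence.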
Potency means the concentration at half of the fitted maximal effect; tags describe the fitted curve by direction and shape.

Compound	Potency	activity, negative = inhibition
O=C1NCc2ccccc2CC12CCN(Cc1c[nH]c3ccccc13)CC2	inconclusive: 5.01 µM [inhibitor, partial curve]	
CCC(O)C(=O)N1CCC(c2[nH]ncc2-c2cccc(OC)c2)CC1 (stereo unspecified)	inactive	
Cc1cccc(CNC(=O)c2ccc(Cn3ccn4nc5c(c4c3=O)CCCC5)cc2)c1	inconclusive: 11.2 µM [inhibitor, single point]	
Cc1cc(C(=O)N2CCC3(CC(=O)NC3=O)C2)c(-c2ccccc2)o1 (stereo unspecified)	inactive	
O=C(C1CCC1)N1CC2CC(C1)[C@H]1CCCC(=O)N1C2 (stereo partly specified)	inactive	
Cc1ccc(Cl)cc1Nc1ncncc1-c1nc(-c2ccccc2)no1	inconclusive: 2.51 µM [inhibitor, partial curve, poor fit]	
COc1ccccc1C(=O)N1CC(CNc2ccccc2)C2(C1)CN(c1ccccc1)C2 (stereo unspecified)	inactive	
O=C(NCc1cccc(Cl)c1)c1ccc(CN2C(=O)NC3(CCOCC3)C2=O)cc1	inconclusive: 1.41 µM [inhibitor, single point]	
COc1cccc(C2C(=O)N(C3CCCCC3)CC(=O)N2Cc2ccc(Cl)cc2)c1 (stereo unspecified)	inconclusive: 8.91 µM [inhibitor, single point]	
COCc1noc(CC2CCOC3(CCN(C(=O)c4cc5ccccc5[nH]4)CC3)C2)n1 (stereo unspecified)	inconclusive: 5.62 µM [inhibitor, partial curve, poor fit]	
CC(c1cccs1)N(C)Cc1ccc(C(F)(F)F)cc1 (stereo unspecified)	inactive	
CC(C)c1ccc(CN2CCc3ncc(C(=O)NCCN4CCNC4=O)n3CC2)cc1	inconclusive: 0.251 µM [inhibitor, full curve, poor fit]	
COc1ccccc1C(=O)N1CC(CNC(=O)C2CC2)C2(C1)CN(c1ccccc1)C2 (stereo unspecified)	inconclusive: 1.26 µM [inhibitor, full curve, poor fit]	
O=C(O)c1ccc(N2C(=O)c3[nH]nc(-c4ccccc4)c3C2c2cccc(F)c2)cc1 (stereo unspecified)	inconclusive: 17.8 µM [inhibitor, single point]	
Cc1cnc(C2CC2)n1C1CCCN(C(=O)C2CCC2)C1 (stereo unspecified)	inconclusive: 17.8 µM [inhibitor, single point]	
O=C1NCc2ccccc2CC12CCN(CCc1ccccc1)CC2	inconclusive: 20 µM [inhibitor, single point]	
Cc1cc(C)n2nc(CC(=O)NCc3cc(-c4ccco4)on3)nc2n1	inactive	
COc1ccc(C)cc1S(=O)(=O)NCC(c1ccc(N(C)C)cc1)N1CCc2ccccc21 (stereo unspecified)	inconclusive: 10 µM [inhibitor, partial curve, poor fit]	
CCc1ccc(CN2CCN(c3ccc(C(N)=O)cn3)CC2)nc1	inactive	
CN1C[C@@H](NC(=O)c2ccccc2)C[C@H]1c1nc(-c2ccccc2)no1	inconclusive: 3.98 µM [inhibitor, partial curve, poor fit]	
CC(=O)c1cc(CN2CCC(c3[nH]ncc3-c3ccccc3C)CC2)n(C)c1	inconclusive: 11.2 µM [inhibitor, single point]	
CN(C)[C@@H]1CN(C2CCOCC2)CC[C@@H]1CO	inactive	

Compound	Potency	activity, negative = inhibition
Cc1ccc(CNC(=O)N2CCC(N3CC4CC(C3)[C@H]3CCCC(=O)N3C4)CC2)cc1 (stereo partly specified)	inactive	
CC(C)NC(=O)Nc1ccc([C@H]2OCC(=O)N(CC(=O)N(C)C)[C@@H]2CO)cc1	inactive	
O=C(NC1CCN(c2cc(-c3ccc(F)cc3)[nH]n2)C1)c1ccccc1Cl (stereo unspecified)	inconclusive: 17.8 µM [inhibitor, single point]	
O=C(Cn1nc2n(c1=O)CCCC2)NCc1ccccc1	inactive	
CCc1noc(-c2cccn3c(CNC(=O)c4ccc(OC)c(F)c4)nnc23)n1	inconclusive: 3.98 µM [inhibitor, partial curve, poor fit]	
CN1C(=O)C(CC(=O)NCCc2nc(-c3cccnc3)n[nH]2)N(C)C1=O (stereo unspecified)	inconclusive: 8.91 µM [inhibitor, partial curve, poor fit]	
CC1Oc2ccc(NS(=O)(=O)c3cccc(Cl)c3)cc2CN(Cc2ccccc2F)C1=O (stereo unspecified)	inactive	
O=C1Nc2ccccc2C2(CCN(C(=O)c3cccnc3)C2)O1 (stereo unspecified)	inconclusive: 3.16 µM [inhibitor, partial curve, poor fit]	
COCCOc1ccc(-c2ccnc(OC)c2C#N)cc1	inactive	
COc1cc(-c2cc3c(nc2OC)nc(CC2CC2)n3C)ccn1	inconclusive: 14.1 µM [inhibitor, partial curve, poor fit]	
O=C(NCc1ccc(C(F)(F)F)cc1)C1CCCN(c2cn[nH]c(=O)c2)C1 (stereo unspecified)	inactive	
CCc1ccccc1Nc1nn2c(=O)c3ccc(C(=O)Nc4ccc(OC)cc4)cc3nc2s1	inconclusive: 11.2 µM [inhibitor, single point]	
COc1ccc(-c2nc3c(c(=O)[nH]2)CCN(C(=O)c2ccc(OC)nc2)C3)cc1	inconclusive: 3.16 µM [inhibitor, single point]	
CC(=O)N1CCC(O)(c2csc(CN3CCN(C)CC3)n2)CC1	inconclusive: 31.6 µM [inhibitor, single point]	
COc1ccc(CN2CCCC23Cc2ccccc2N([S+](C)(=O)[O-])C3)cc1 (stereo unspecified)		inconclusive: -97.8% [inhibitor]
Cc1cc(C)cc(OCC(=O)NCC2(N(C)C)CCCCC2)c1	inconclusive: 2.82 µM [inhibitor, full curve]	
OC1(CN2CCCCC2)CCN(Cc2cccc(F)c2F)C1 (stereo unspecified)	inactive	
Cc1ccccc1S(=O)(=O)N1CCCC(Cc2noc(-c3ccncc3)n2)C1 (stereo unspecified)	inconclusive: 11.2 µM [inhibitor, single point]	
O=C(CCc1ccccc1)NCc1nnc2c(-c3nc(C4CC4)no3)cccn12	inconclusive: 2 µM [inhibitor, single point]	
O=C(c1ccco1)N1CCCC(c2noc(COc3ccccc3)n2)C1 (stereo unspecified)	inconclusive: 6.31 µM [inhibitor, partial curve, poor fit]	
Cc1cnc(CC2CCN(S(=O)(=O)c3cccc(F)c3)C2)n1C(C)C (stereo unspecified)	inconclusive: 11.2 µM [inhibitor, partial curve, poor fit]	
O=C(Nc1ccc(F)cc1F)C1(CCO)CCN(c2ncccn2)C1 (stereo unspecified)	inconclusive: 1 µM [inhibitor, partial curve, poor fit]	

Compound	Potency	activity, negative = inhibition
O=C(c1ccc(N2CC3CC(C2)[C@H]2CCCC(=O)N2C3)nc1)N1CCN(c2ccccc2)CC1 (stereo partly specified)	inactive	
COc1ccc(-c2ncc3c(n2)OCCN(CC2CC2)C3=O)cc1	inconclusive: 17.8 µM [inhibitor, partial curve, poor fit]	
CCOC(=O)c1ccc(NC(=O)Cn2c(N3CCOCC3)nc(CC)cc2=O)cc1	inconclusive: 5.62 µM [inhibitor, partial curve]	
O=C(COc1ccccc1)N1CCNc2cnc(Nc3cccc(F)c3)nc2C1	inconclusive: 10 µM [inhibitor, partial curve, poor fit]	
CC(=O)Nc1ccc(Cl)c(C(=O)N(C)Cc2sccc2C)c1	inactive	
C[C@@H](c1ccccc1)N1C(=O)[C@@H]2CN(C(=O)CC3(CC(=O)O)CCCC3)CCN2C1=O	inconclusive: 10 µM [inhibitor, partial curve, poor fit]	
O=C1NC2(Cc3ccccc31)CN(CC1CCCC1)C2	inactive	
Cc1cc(C)cc(Nc2sc(C(=O)c3ccccc3)c(N)c2S(=O)(=O)c2ccccc2)c1	inconclusive: 20 µM [inhibitor, single point]	
CCN1CCN(C(=O)C2(CCO)CCN(Cc3ccccc3)C2)CC1 (stereo unspecified)	inactive	
CC(=O)Nc1ccc(C2Nc3c(C)cc(C)cc3-c3cc(C)nn32)cc1 (stereo unspecified)	inconclusive: 0.282 µM [inhibitor, partial curve, poor fit]	
COc1cc(OC)c(NS(=O)(=O)c2ccc3c(c2)NC(=O)CCS3)cc1Cl	inactive	
COCCOc1ccnc(-c2noc([C@@H]3CCCN3C3CCN(C(C)=O)CC3)n2)c1	inactive	
O=S(=O)(NC1CCCN(Cc2ccccc2F)C1)c1ccccc1 (stereo unspecified)	inconclusive: 10 µM [inhibitor, single point]	
Cc1ccc(C(=O)NCC(c2cccnc2)N2CCc3ccccc32)cc1C (stereo unspecified)	inconclusive: 10 µM [inhibitor, single point]	
CCN(C(=O)CN1C(=O)NC(c2ccc(Cl)cc2)C2=C1COC2=O)c1ccccc1 (stereo unspecified)	inactive	
COc1ccc(NC(=O)O[C@@H]2C=C[C@H](c3c(C)nn(-c4ccc(F)cc4)c3C)C2)cc1	inconclusive: 3.55 µM [inhibitor, partial curve, poor fit]	
Cc1nc([C@H]2CCN(Cc3ccc(F)cc3F)C[C@H]2NC(=O)C2CCOCC2)n[nH]1	inconclusive: 0.0631 µM [inhibitor, partial curve, poor fit]	
O=C1N[C@@H]2CCN(S(=O)(=O)c3cccc(F)c3)[C@@H]2C(=O)N1c1ccc(F)cc1	inactive	
COCCNC(=O)c1ccc(N2CC3CC(C2)[C@H]2CCCC(=O)N2C3)nc1 (stereo partly specified)	inactive	
CCn1c2c(c(=O)n1Cc1ccccc1)CCN(Cc1c[nH]c3ccccc13)C2	inconclusive: 12.6 µM [inhibitor, single point]	
COc1cccc(-n2c(SCc3ccccc3C)nc3c([nH]c4ccccc43)c2=O)c1	inconclusive: 11.2 µM [inhibitor, single point]	
CC1(C)C[C@H](NC(=O)c2ccc(C#N)cc2)[C@@]2(CCC(=O)NCCc3c[nH]c4ccccc34)CC[C@](C)(O)C[C@@H]12	inconclusive: 12.6 µM [inhibitor, partial curve, poor fit]	

Reference: PubChem BioAssay AID1347417 (National Center for Advancing Translational Sciences (NCATS), 2020)
